Assay results as given in the RNAGym collection of RNA variant scans (doi:10.1073/pnas.2313332121).
This sample is rich in variants without activity.

B1: TPR 5TU (parent)
chain: GGAUCUUCUCGAUCUAACAAAAAAGACAAAUCUGCCACAAAGCUUGAGAGCAUCUUCGGAUGCAGAGGCGGCAGCCUUCGGUGGCGCGAUAGCGCCAACGUUCUCAACUAUGACACGCAAAACGCGUGCUCCGUUGAAUGGAGUUUAUCAUG

Variants of: B1
Assay: polymerase ribozyme fitness, log enrichment relative to wild type (log ratio); higher = more active; in vitro selection for triplet polymerase activity
Summary of the method: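 Fitness measures genotype enrichment against wild-type enrichment on a logarithmic scale, with inverse-variance-weighted averaging of replicates. The logarithm is base 2, and genotypes were kept only with ≥10 input reads and ≥1 read per output in Illumina sequencing. The sequenced libraries came from one triplicate in vitro selection round, including frozen incubation at −7 °C, of PCR-built, transcribed mutant libraries of each subunit of a heterodimeric triplet polymerase ribozyme.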

Point of comparison: A37G C87U, “polymerase ribozyme fitness (log ratio)” value -2.16. Against it:
- A37G C85U G88C C95U — lower, ≤ -4.2
- A37G C87U G94C — lower, ≤ -4.2
- A37G C93A A142G — lower, ≤ -4.2
- A37G C93U — lower, -3.38
- A37G C93U A107G — lower, ≤ -4.2
- A37G C93U C116G — lower, -2.65
- A37G C99A U146A — lower, ≤ -4.2
- A37G G42C C76U G84C — lower, ≤ -4.2
- A37G G42C G46A U56A A66G A89C — lower, ≤ -4.2
- A37G G48A C93U A97U A98U G100U A107G U135C G143A — lower, ≤ -4.2
- A37G G48C A52C U56A C79A U104A U109A C116G C149G G152A — lower, ≤ -4.2
- A37G G50A U55C A91G G124A U151G — lower, ≤ -4.2
- A37G G50C G74U C105G A122U — lower, ≤ -4.2
- A37G G59A C69U C79G G94A A97U G112U C118A — lower, ≤ -4.2
- A37G G59A C79A C95A A107U — lower, ≤ -4.2
- A37G G59A C118G A142C — lower, ≤ -4.2
- A37G G71U U78A C95U C99U G141U — lower, ≤ -4.2
- A37G G81A G136U A142U — lower, ≤ -4.2
- A37G G124A — within 0.2 log units, -2.19
- A37G U44G C72U C93G A97G A98C G141U — lower, ≤ -4.2
- A37G U45C C54G A60G U90C C95A G117A U146C U148A — lower, ≤ -4.2
- A37G U45G C54A A91G C96U G141U — lower, ≤ -4.2
- A37G U53A A66U U101G A115C C116U — lower, ≤ -4.2
- A37G U53C C79G C96U A107C G133A — lower, ≤ -4.2
- A37G U55A A66G C75U C85A A122U — lower, ≤ -4.2
- A37G U55A C57G A73U C87U G133U U146G — lower, ≤ -4.2
- A37G U55G G59A A73G G88A A150G — lower, ≤ -4.2
- A37G U61A G141C U148C — lower, ≤ -4.2
- A37G U61C G94U U145C — lower, ≤ -4.2
- A37G U61G C93U A115C — lower, -4.18
- A37G U102G C103A G128U — lower, ≤ -4.2
- A37G U145G — within 0.2 log units, -2.35
- A37U — higher, -1.11
- A37U A40C G42C G81A A98C — lower, ≤ -4.2
- A37U A40C G68C G86U C95U G136A A137C — lower, ≤ -4.2
- A37U A40C G70A C76G C85U — lower, ≤ -4.2
- A37U A47C C79G A91U C105G U135C U139C — lower, ≤ -4.2
- A37U A47G C75A G86U C95G C132U G133U G152U — lower, ≤ -4.2
- A37U A49C U78A C79G — lower, ≤ -4.2
- A37U A52C G94A A98U U109C G128A G133A — lower, ≤ -4.2
- A37U A52U C57U G74A C76U C93U C95U U109G — lower, ≤ -4.2
- A37U A52U G88A G92A G126A — lower, ≤ -4.2
- A37U A60G G71U U78A C93A U104G A122C — lower, ≤ -4.2
- A37U A60U C75U C96A U111A — lower, ≤ -4.2
- A37U A60U C76G U102G A115U A150U — lower, ≤ -4.2
- A37U A73G — higher, -1.1
- A37U A73G G80C G88C A98U C103G — lower, ≤ -4.2
- A37U A89C C96U C103G U111A U148C — lower, ≤ -4.2
- A37U A89U U146A — higher, -1.62
- A37U A98G — higher, -1.34
- A37U A106U U151G — lower, ≤ -4.2
- A37U C54G C96U U104G — lower, ≤ -4.2
- A37U C54U A138C — lower, ≤ -4.2
- A37U C72A C95U — lower, ≤ -4.2
- A37U C75U G83A A98U — lower, -2.88
- A37U C96G C114U C118A — lower, ≤ -4.2
- A37U C114U A115G A120U — lower, -3.83
- A37U C116U G128U G141A — lower, ≤ -4.2
- A37U C125G U139C — lower, ≤ -4.2
- A37U G42A G67A C93A A122U — lower, ≤ -4.2
- A37U G42C — lower, -3.9
- A37U G42C G50C C57A A73G C132G G141C — lower, ≤ -4.2
- A37U G42U C96G U144C — lower, ≤ -4.2
- A37U G46U C85U G86A G92A — lower, ≤ -4.2
- A37U G48A G94U A106C A115G U139G — lower, ≤ -4.2
- A37U G50A U53A G83U C85A G92U C105A G117A U139A C149U — lower, ≤ -4.2
- A37U G50C U78C A98U U134C — lower, ≤ -4.2
- A37U G50U C79A G133A — lower, ≤ -4.2
- A37U G58U C95G A97G U127G C131A G141U — lower, ≤ -4.2
- A37U G59C C149G — lower, ≤ -4.2
- A37U G81U U82C A89G C93G A97U — lower, ≤ -4.2
- A37U G83A C85A C87A A98U A106G — lower, ≤ -4.2
- A37U G84A C87U G94A A110U A113C A115C — lower, ≤ -4.2
- A37U G84A C103A C118G U139A — lower, ≤ -4.2
- A37U G86U — lower, -3.44
- A37U G92C G133C — lower, -3.52
- A37U G94A U104G — lower, -2.92
- A37U G100C A120U — lower, ≤ -4.2
- A37U U55A A91G A98U U148A — lower, ≤ -4.2
- A37U U55A G58C A142U — lower, -2.45
- A37U U61A C79A U148G — lower, ≤ -4.2
- A37U U61A C85U U134A — lower, -3.78
- A37U U77G C96A A106G — lower, ≤ -4.2
